The full ranking holds about 33,000 sequences; the median of “E-score (-0.5 to 0.5)” is about -0.01, and the highest 2% start at about 0.26. Some of the results follow.
biological target: Ste12 (UniProt P13574); experiment: PBM E-score (8-mer binding enrichment) (E-score (-0.5 to 0.5)); higher = stronger / more preferred TF binding; most listed sequences are background and not binding sites; settings: protein concentration: 200 nM; construct: GST-DNA-binding domain
Procedure, shortened: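 Full-length yeast transcription factors or their DNA-binding domains, GST-tagged and expressed with PURExpress, were applied at about 100-200 nM to universal all-10-mer Agilent arrays. These arrays had been made double-stranded by primer extension on fresh or once-stripped slides. Detection used fluorescent anti-GST, normalisation used masliner, and E-scores for ungapped eight-base words pooled with reverse complements came from the Universal PBM Analysis Suite.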

Sequence	PBM E-score
AGCCCCCG	-0.128
ACAAGATA	0.0153
CGCCAACG	0.0757
ACTGCGAA	-0.193
AGGGTAGA	-0.076
GGTACGGA	-0.126
CATGTCGC	-0.0286
AGCTAGGC	-0.189
ACGTCCCA	-0.0997
CCAGTAAG	0.00325
GCGCAGCA	-0.227
GCTCCTAC	-0.199
ATGACTAC	-0.232
CTAAGCGA	-0.0793
CTGGTAAA	0.0096
ATTGAACG	-0.0599
ATCGTTGC	-0.153
CAGCCTAG	0.0593
AAGCAAAT	0.0456
AGGACCAG	-0.236
ATCACGAG	0.0437
AGCGTAAG	-0.158
ACGCTTTG	0.00226
GCTATCCC	-0.0374
ACTCTGAT	0.146

Sequence	PBM E-score
GGCACAGA	-0.098
AGCCGCCT	-0.164
CGCGGACG	-0.12
CCCTTCTA	-0.26
ACTGGCGC	0.106
AAGCGAAA	0.206
AACGAAGT	-0.104
GACGGCGA	-0.0919
ACATTCCG	-0.0362
AGTCTATA	-0.108
AATTAAAG	0.103
AACACATG	0.128
CTCAGCAA	-0.0278
CAGGGCTA	-0.0534
ATGATGAC	0.031
AATCAAAG	0.141
ACCGTGGC	-0.0352
GCGTTTAA	0.103
CCGCCTTC	0.0767
AAGTGCGA	-0.106
CCCGAAGG	-0.0324
CGCTTCTA	-0.104
TGCTAGCA	-0.159
GCACACTA	0.0103
AGTTAAAG	0.0651

Sequence	PBM E-score
CCACTGTC	-0.284
CCTTCCTA	-0.114
ACCATCTG	0.0494
AGAACGCG	0.113
CCAGGAAA	-0.0329
CGCGCGAA	0.0853
GGTCTTAC	-0.0717
ACTTGGCC	-0.0942
AGCTCAGA	-0.04
CAGGTTCC	-0.0376
CTTGTGAC	0.0782
CCATACCA	-0.0771
ATGGACCG	-0.00313
CATGGTTC	0.19
ATTGAGGC	0.0477
AATATGGA	0.123
ATACAGCC	-0.147
CACCCCGC	0.195
ACGCACCT	-0.112
AGTGTGTG	-0.123
GAGGAACC	-0.181
CATCAATC	0.122
CCGCTTGC	0.0426
CGCCTTCA	-0.166
AACTGGAA	0.0921

Sequence	PBM E-score
ATTACATA	-0.0261
AGATTACT	0.0149
CTAAACTC	-0.0817
TCATTACA	0.18
CAGTGCGG	-0.112
CTTTCTAC	0.0634
CGGGCAGA	0.0708
CACTCAAA	0.0429
GAACAACA	-0.00794
AGAAGACG	0.102
AAAGACGG	-0.0892
AACGTGTA	-0.0898
GGGCAATA	0.0526
ATATCAGC	0.0327
CGACTTTA	0.0771
TGAATGAA	0.208
AGATACCT	-0.124
CTAGAAAG	0.0535
GCGGTGTA	0.0847
TATCAGCA	0.0983
CAAGATGA	-0.0642
ACCCAAGG	-0.00448
TAACGGGA	-0.0427
ATCGACTA	-0.0298
CAAGTTCG	-0.0514

Sequence	PBM E-score
ACGGAACT	0.0365
AGAGATCA	-0.155
CTGTAATC	-0.0952
ATCGAAAT	0.0976
AGACCAGC	-0.267
ACTCCGTA	-0.107
CGGACGAC	0.0253
CAAGATAA	0.151
ATATGTAA	-0.0122
ATAATGGG	0.145
AGCGCGAT	0.114
GCAGTCCA	-0.113
ATTGTGGG	0.0634
ACGGTTCC	-0.0175
CTTATCGC	0.0827
TGGCACCA	-0.119
GACCGCAC	-0.159
ACCTAAAG	-0.015
GTCAAGAC	-0.0113
CCAAACCG	0.0704
AGACGTTC	-0.219
ATGCGCCA	0.0723
ATCTGGGC	-0.0628
ATTCTGCA	0.182
GCTCCGAC	0.0278

Sequence	PBM E-score
CCTCTTAA	0.078
CATTGCTA	-0.0578
CCACTACA	-0.0472
AACTCTAC	-0.139
ACAAGTAG	0.0562
AGGGAGAA	-0.185
CAACCAAA	0.21
CCCAAAGG	-0.199
CTCACATC	0.0669
AGATAAGC	0.0355
CGTAAGTA	-0.0906
AGTAAGCC	0.00504
ATTTCGCA	0.162
AAGGTCTG	0.0423
CCAATTCG	-0.0588
AGACAATG	-0.0392
AACCGCCG	0.132
AACAGGAC	-0.144
TCCTTTCA	0.00642
AGTAAAGC	-0.171
GAGCTACA	-0.169
CATATATA	0.283
AGGGACCC	-0.259
CCTGAGAC	0.101
ACGATCGG	0.0543

Sequence	PBM E-score
CGCCGTTC	-0.0924
GGTCATCA	-0.322
ACTCACGC	0.0283
CATCGTAA	0.175
ACTCTATA	0.114
AGGTGTCC	-0.176
AAGAAAGT	0.0943
GACCCATA	0.0501
GATAATGA	0.0951
AACCGTTA	-0.0675
GTGCAATA	0.0283
AAATGCGC	0.136
CCTACTAC	-0.0516
CCAGGCCC	-0.165
ATTGCCCC	0.0929
GCGTCAGA	-0.0135
GCCGATTA	0.164
AACTACTA	0.115
ACATCACA	0.0764
AGACGCCT	-0.101
GATTACCA	-0.0745
CATTAGGG	-0.166
AAAGTAGT	0.00407
ACGTAGTG	-0.249
CAGAGTGG	-0.239

Sequence	PBM E-score
AGAAACAG	0.0492
ATCCCAAA	0.178
TCAATCGA	0.0344
ATCAAAAG	0.0655
AGGCCAGG	-0.0224
AAGACGCC	-0.0126
CTAATATA	0.0456
CTGACAAG	-0.0158
GGAACCCC	-0.172
CTGTCAAG	-0.2
GCTTTACC	0.00976
CCTCAAAA	0.198
CCTCGTAC	-0.0391
AACTTTTA	0.228
ATGAGTAC	-0.0228
CCTAGGTC	-0.105
GGCCTACC	-0.134
TAACTGGA	-0.0107
GCCGTGCA	-0.12
ATGCTGAG	-0.11
CAACGCAG	-0.0949
GAATAACC	-0.144
AACCGACC	0.121
ACACACGG	-0.0544
GCCTGAAA	0.273

Sequence	PBM E-score
GCGCACCC	-0.0102
CACGTCTC	0.0586
ATAAACCG	0.0871
CTAATGCA	0.00892
CGTCGGAG	0.132
GGGCGCCC	0.159
CATGCTAA	-0.195
GACGCTCC	-0.0783
ACCCTTTC	-0.018
ACAGACGC	-0.153
GAACGTGA	-0.0866
GCCTCGTA	-0.0779
CACCTGCA	-0.121
GTAGCCGA	-0.236
CGGGACCG	-0.0541
GAATCACC	-0.0599
GTATCGCA	-0.126
CCGCTGAC	-0.075
AGTGAAAA	0.213
